# According to PMC10668032:
# This is one part of the list. At the low end of the ranking the order means little.
# Target: SIX1 homeodomain (reference allele) (UniProt Q15475)
# Assay: universal protein binding microarray
# Details: Universal all-10-mer PBM (8x60K, AMADID 030236), 300 nM GST-tagged protein, Alexa Fluor 488 anti-GST; buffer, salt, pH and temperature not stated; high values mean tight binding; most listed sequences are background and not binding sites; double strand, one strand shown
row,Sequence,binding signal [E-score]
1,GACCTTTA,-0.195
2,AGAAGTCG,-0.197
3,TCAGCTAA,-0.138
4,AGATACCT,0.42
5,ATCAACGA,0.201
6,ATTGAAAC,-0.0142
7,ATTAGGGG,0.128
8,ACGCCCAA,-0.119
9,ATGGGGTC,0.168
10,CTTTACAA,-0.303
11,ATGAGTGC,-0.0107
12,AAAGGCTT,-0.251
13,ATGCCTAC,-0.0281
14,AGTATGTG,0.0433
15,ACACGGTC,-0.128
16,AGGCTCGG,0.0691
17,GCTGAGCC,0.135
18,CGGTCCCC,-0.0557
19,GAAGAGCC,-0.0821
20,AGCTTTAC,-0.0217
21,GCTTGTCA,-0.169
22,ATTAGGTA,0.0366
23,ACGTCAAG,-0.0419
24,ACCTATAG,0.064
25,ATGCTTTC,-0.12

row,Sequence,binding signal [E-score]
1,AAACACTA,-0.205
2,GCACTGCA,0.000355
3,AATGGGTC,-0.178
4,ATTTGGAC,-0.283
5,GAAAAGCA,-0.39
6,GCAAGTCA,-0.235
7,ACAGCTGA,-0.0915
8,GTTCGGCA,-0.087
9,AAGCTCTA,-0.142
10,CCTCCCCA,0.0583
11,GTATGACA,0.153
12,CCATTTCA,-0.229
13,CAAGGACC,-0.266
14,AAACATTG,-0.256
15,AATCACAA,-0.155
16,ACTTCCGA,0.0499
17,AGAGACAC,0.145
18,ACTTTTCA,-0.263
19,ACGCACAT,0.0406
20,CGTTAGGA,-0.00931
21,AATCTGAT,0.289
22,CAAATTCC,-0.154
23,ACATTCAC,-0.251
24,TCAGCGAA,-0.196
25,GCCACTAC,-0.0908

row,Sequence,binding signal [E-score]
1,AGAGCGTG,0.168
2,GCAGTAAC,-0.28
3,CAGCGGCC,-0.204
4,GTAGTTGA,0.092
5,CCGCAATA,0.0965
6,AACGGAAA,-0.179
7,ACTCTAAG,-0.0554
8,ATCGCGAA,0.159
9,AGTGCCGA,-0.139
10,AAACTCGG,-0.149
11,TACGACTA,0.0278
12,AATCTCGC,-0.0356
13,AAAACCGT,-0.182
14,TGCTTAAA,-0.17
15,GAGCTGGA,0.177
16,ACCCCGAC,0.181
17,GCTCGATA,0.288
18,GAGATCTC,0.292
19,CAGGAGCC,-0.0301
20,CTCAACAG,9.5e-05
21,CGATACAG,0.313
22,ACGTGAGT,-0.112
23,GAGGATGA,0.106
24,TACCAGTA,0.201
25,GAGTTTAA,-0.155

row,Sequence,binding signal [E-score]
1,CGCCAGCA,-0.174
2,AACAGTCA,-0.138
3,AGCATTAC,-0.14
4,GGCTCCGA,-0.0025
5,ACTGGGCG,-0.0474
6,CCTTGCCA,-0.145
7,TTATCAAA,-0.0696
8,GATGCTAA,-0.0756
9,CTGGACAG,-0.2
10,AGGATGAG,0.123
11,ATGTTTGC,-0.313
12,ATCTCTGA,0.154
13,CGGATCCA,0.406
14,ATTGGTAC,-0.0573
15,ACCCCGGA,0.23
16,TAGCGCTA,0.025
17,CAATCATG,0.0451
18,AGATAAAG,0.183
19,AAGTCAAA,-0.302
20,CCCCACCA,0.0103
21,GGACGGTA,-0.0189
22,GATCTGAA,0.143
23,AGTAACCG,-0.145
24,GAAATGAC,-0.207
25,TAAACTTA,-0.0993

row,Sequence,binding signal [E-score]
1,GTGCTGTA,0.0699
2,ATAACAAT,0.0525
3,GATGCGTA,0.125
4,GTTTGCAA,-0.047
5,AGACACCA,0.329
6,TGCGCCCA,-0.184
7,ATTTCAGG,0.0155
8,GGTTAGAC,-0.0936
9,TCTCATAA,0.161
10,ACTCCAGA,-0.059
11,TACTAAGA,0.103
12,ATAAAAAT,-0.0378
13,CACCTACA,0.0152
14,GACGACAC,0.164
15,ATTATCGA,0.0731
16,GGTCGTCA,-0.147
17,GGGCACAA,-0.0768
18,CATCTGAA,0.0746
19,TACTCAGA,0.0519
20,TAGTCCAA,-0.232
21,AAAGTGCC,-0.246
22,ATAATAAT,0.192
23,ACGACCGC,-0.289
24,AGGCGAGG,0.0995
25,AATGACGT,-0.0872

row,Sequence,binding signal [E-score]
1,AGACGCCC,0.125
2,AACTCTCA,-0.271
3,CGCATTTA,-0.0481
4,TACAGGAA,0.05
5,CGCAGAGA,0.0859
6,GAGTACTC,-0.0238
7,AGGGCGAT,0.284
8,ATTGACGG,-0.122
9,ATGGAACC,-0.121
10,ACGAGTGG,0.001
11,AAGCAAGT,-0.241
12,AATAATGG,-0.158
13,TCTGTCCA,-0.0148
14,ACTTTCGG,-0.174
15,GCGGCTAA,-0.0411
16,AGCGCGCA,-0.0529
17,GAGGTATA,0.365
18,ACGTGGCA,-0.331
19,CGACAACG,-0.208
20,CGGTTAAG,-0.281
21,CTGCTATA,0.194
22,CGACCTGA,-0.0669
23,AGTAAACG,-0.0653
24,CGTGGCGA,-0.0946
25,ACGCAATA,0.152

row,Sequence,binding signal [E-score]
1,ATCTGACC,0.282
2,GCGCGTAA,-0.137
3,AGACCCTA,-0.0278
4,TAAGGCGA,-0.097
5,ACAGCAGG,0.0406
6,AAGAGGAA,-0.215
7,AATTTTCT,-0.31
8,ATTATCTG,0.138
9,ACATGTGA,-0.161
10,GACTACGC,-0.243
11,GCGCGTAC,-0.0697
12,AACGCACG,-0.195
13,AATTCTAT,-0.17
14,AAGAATTG,-0.235
15,AGACTAAC,-0.254
16,AACACTGA,-0.0187
17,GTGTTGAA,0.0888
18,GAAGTCGC,-0.241
19,AAGGACTT,-0.199
20,CGCACCCA,-0.0395
21,CGTCGATC,0.157
22,CGTGGAAG,-0.0521
